The test system of this experiment is hFZD7 CRD (H84A, Y87A, F138A, F140A). As to the kind of experiment: FSEC with hFZD7 CRD mutants. The note with it: FIG. 40. The class given is binding, human. The text has this:
[…]. […] […].

As for LPSDDLEFWCHVMY [Fz7-21], the “binding to mutant vs wild-type hFZD7 CRD” value is recorded as “reduced the binding”.

The values are drawn from patent US20190359653A1, “SELECTIVE PEPTIDE INHIBITORS OF FRIZZLED” (Genentech, Inc., priority 2016, published 2019).
